Laboratory results taken from the supplement of paper PMC3334620.
Whole data set: some 33,000 sequences, median “E-score (-0.5 to 0.5)” near -0.035, cut for the highest 2% near 0.34. This is one part of the list.

Target: T1, Mot3 (UniProt P54785)
T1 sequence: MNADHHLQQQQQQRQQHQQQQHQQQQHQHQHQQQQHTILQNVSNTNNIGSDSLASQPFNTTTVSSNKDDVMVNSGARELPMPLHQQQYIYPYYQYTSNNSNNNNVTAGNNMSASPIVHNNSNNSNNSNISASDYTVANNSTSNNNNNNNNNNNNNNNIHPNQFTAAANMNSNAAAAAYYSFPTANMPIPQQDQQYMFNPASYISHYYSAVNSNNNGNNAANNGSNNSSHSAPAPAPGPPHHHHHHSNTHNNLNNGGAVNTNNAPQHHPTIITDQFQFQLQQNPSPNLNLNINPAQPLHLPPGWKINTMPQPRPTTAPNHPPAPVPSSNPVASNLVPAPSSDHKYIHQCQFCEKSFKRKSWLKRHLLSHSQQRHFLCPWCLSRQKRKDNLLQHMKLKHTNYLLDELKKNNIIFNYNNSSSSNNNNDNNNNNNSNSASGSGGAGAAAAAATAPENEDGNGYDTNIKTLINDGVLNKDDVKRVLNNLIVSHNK
Experiment: PBM E-score (8-mer binding enrichment) (E-score (-0.5 to 0.5)); higher = stronger / more preferred TF binding; most listed sequences are background and not binding sites
Settings: protein concentration: 200 nM; construct: GST-full length
Method in brief: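 Masliner-normalised scans of fluorescent anti-GST signal were the basis for scoring. That signal came from GST-tagged yeast transcription factors applied at about 100-200 nM to double-stranded universal all-10-mer Agilent arrays on fresh or once-stripped slides. Each ungapped eight-base word, pooled with its reverse complement, received an E-score from the Universal PBM Analysis Suite.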

Row | Sequence | PBM E-score
1 | CCACGCTA | -0.194
2 | AGCCTCCG | -0.0828
3 | TACATAGA | 0.357
4 | CTCTACGA | 0.0109
5 | ACGCAAGA | -0.0148
6 | ATGGAAAG | 0.0416
7 | GCAACCGC | -0.0326
8 | AGAGGGGA | -0.331
9 | GTCTCACA | -0.0936
10 | AACCGGCG | 0.0787
11 | GATTGGAA | -0.00014
12 | GATACTAA | 0.0182
13 | AAGTCATA | -0.0524
14 | CCGTTTCA | -0.123
15 | ACAGGTTG | 0.181
16 | CGCATCTC | -0.0332
17 | AGCACTCG | -0.348
18 | AACTTTGA | -0.016
19 | AGGAAAGA | 0.282
20 | ACCCGTCG | -0.0764
21 | AGTCCTGG | -0.278
22 | CCATCCTC | -0.233

Row | Sequence | PBM E-score
23 | CAAAGATG | 0.0103
24 | TCCTCGCA | -0.141
25 | CATTTCGG | -0.063
26 | CTGCTGCA | -0.0263
27 | CGCAGAAC | 0.012
28 | CAGCGACA | -0.0471
29 | CGCGGAAA | -0.07
30 | GAAACACA | 0.233
31 | GACCCATC | -0.217
32 | AGTTTGAC | 0.161
33 | ATCAAGAC | 0.0321
34 | ACGGATAA | -0.0413
35 | CCACTTCC | -0.116
36 | GCCTCAAC | 0.109
37 | TAATGCCA | 0.121
38 | GAATCAAA | -0.0706
39 | ATACTTAC | 0.242
40 | CGATGCAG | -0.323
41 | ACTTCCTG | -0.0437
42 | TCTATCCA | -0.12
43 | AGTTGTCA | -0.0144
44 | TAGACACA | 0.105

Row | Sequence | PBM E-score
45 | ACTTATCA | -0.0722
46 | ATAAGGGG | -0.0678
47 | AGGTGTTC | 0.139
48 | CCTACCGC | 0.0945
49 | AGCTATTG | 0.0615
50 | CAGGGGGG | -0.214
51 | GCGATATA | -0.0247
52 | AAGAAGAA | 0.172
53 | CGGAACAC | 0.0144
54 | AGTCGTTG | -0.195
55 | ATACGCGC | 0.236
56 | CAGAGGGA | -0.123
57 | ATGTCGCA | 0.0417
58 | GAGATGGC | -0.0348
59 | GTCCAGAA | 0.097
60 | AAAATGGC | 0.0705
61 | CACAGTTC | 0.00017
62 | CACTTTCG | -0.0675
63 | CGTCACCC | -0.109
64 | CATAGCGA | 0.0868
65 | GTCCCTGA | -0.064
66 | AGGTGGGG | -0.125

Row | Sequence | PBM E-score
67 | CTAGGAAA | 0.246
68 | AGGGACGA | -0.113
69 | CAAGTAGA | -0.0203
70 | CCGGCAAC | -0.223
71 | TGCATTAA | 0.115
72 | TCTTACCA | -0.0433
73 | GCGGCGGA | -0.126
74 | GAGCTATC | -0.176
75 | CCTTATGC | -0.0846
76 | ATGACTGG | -0.187
77 | CCGTCCCG | -0.264
78 | ACTTACCA | -0.0176
79 | CCTTGGGA | -0.179
80 | AGTCGAGG | -0.133
81 | TAATAGAA | 0.221
82 | CGGGCTAA | -0.149
83 | ACCCCGAC | -0.234
84 | AATCCCTA | -0.0653
85 | AGGGCTAG | -0.266
86 | ACTATCCT | -0.243
